Our source for the AUC and IC50 values is the supplement of paper PMC4967469.

A lower IC50 marks a more sensitive line; a fit beyond the top or the lowest dose is shown as a bound at that dose. AUC, from the same fit, is the share of area under the viability curve across the 256-fold dose range: 1 means no effect, lower means more sensitive. Any top dose called inferred was derived from the fitted curves, not read from the paper.

The IC50 is the concentration that inhibits the measured activity by half.

Compound in this assay: Cn1cc(C2=C(c3cn(C4CCN(Cc5ccccn5)CC4)c4ccccc34)C(=O)NC2=O)c2ccccc21 [LY317615]
Put plainly: Viability of human cancer cell lines after 72 h of drug (GDSC screen). The settings on record: top dose inferred. The protocol:
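Human cancer cell lines in 384-well plates, medium with 10% serum, drug for 72 h over a 256-fold dose range (nine 2-fold or five 4-fold steps up to the top dose). Adherent lines were fixed and stained with the nucleic acid dye Syto60, suspension lines read with resazurin; signal relative to control wells, capped at 0 and 100%. One two-parameter sigmoid per drug and line, fitted in a mixed model over all curves with the slope shared within a line.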
Regarding “HCT-15 (large intestine, adherent, top dose 20 µM)”, the AUC was 0.843 and the IC50 came to 15.5 µM.
On to “KYSE-520 (oesophagus, adherent, top dose 20 µM)”, for which the AUC came out at 0.434 and the IC50 was found to be 0.777 µM.
In the same order, the values of “JHU-011 (head and neck, adherent, top dose 20 µM)” are 0.763 and 7.08 µM.
The like results for “HCC202 (breast, adherent, top dose 20 µM)” were, in that order, 0.912 and above 20 µM.
In the same order, the values of “HCC1954 (breast, adherent, top dose 20 µM)” are 0.567 and 1.96 µM.
As for “COLO-800 (melanoma, adherent, top dose 20 µM)”, the AUC was found to be 0.962 and the IC50 is above 20 µM.
In the same order, the values of “SW620 (large intestine, adherent, top dose 20 µM)” are 0.548 and 1.66 µM.
In the same order, the values of “OVCAR-4 (ovary, adherent, top dose 20 µM)” are 0.75 and 9.59 µM.
The like results for “SF268 (glioma, adherent, top dose 20 µM)” were, in that order, 0.947 and above 20 µM.
“OCI-M1 (acute myeloid leukaemia, suspension, top dose 20 µM)”: the AUC is 0.579 and the IC50 worked out at 1.95 µM.
The like results for “NCI-H441 (lung adenocarcinoma, adherent, top dose 20 µM)” were, in that order, 0.939 and above 20 µM.
In the same order, the values of “HSC-3 (head and neck, adherent, top dose 20 µM)” are 0.965 and above 20 µM.
The like results for “LXF-289 (lung adenocarcinoma, adherent, top dose 20 µM)” were, in that order, 0.753 and 6.58 µM.
Take “MHH-PREB-1 (B-cell leukaemia, suspension, top dose 20 µM)”: the AUC turned out to be 0.883 and the IC50 came out at 17.6 µM.
In the same order, the values of “SW1271 (small cell lung carcinoma, adherent, top dose 20 µM)” are 0.984 and above 20 µM.
For the cell line “L-1236 (Hodgkin lymphoma, suspension, top dose 20 µM)”, the AUC turned out to be 0.949 and the half-maximal inhibitory concentration (IC50) was above 20 µM.
The like results for “KE-37 (lymphoblastic leukaemia, suspension, top dose 20 µM)” were, in that order, 0.491 and 1.19 µM.
In the same order, the values of “H2461 (mesothelioma, adherent, top dose 20 µM)” are 0.756 and 8.42 µM.
In the same order, the values of “KYSE-220 (oesophagus, adherent, top dose 20 µM)” are 0.982 and above 20 µM.
“TMK-1 (stomach, adherent, top dose 20 µM)”: the AUC is 0.959 and the IC50 is above 20 µM.
The like results for “EW-3 (Ewing sarcoma, adherent, top dose 20 µM)” were, in that order, 0.984 and above 20 µM.
For “RPMI-2650 (head and neck, adherent, top dose 20 µM)”, the AUC came out at 0.915 and the 50% inhibitory concentration (IC50) was above 20 µM.
The like results for SCH (stomach, adherent, top dose 20 µM) were, in that order, 0.988 and above 20 µM.
For “NCI-H1975 (lung adenocarcinoma, adherent, top dose 20 µM)”, the AUC amounted to 0.719 and the IC50 came out at 5.78 µM.
In the same order, the values of “U-698-M (B-cell leukaemia, suspension, top dose 20 µM)” are 0.901 and above 20 µM.
The like results for “H3118 (head and neck, adherent, top dose 20 µM)” were, in that order, 0.735 and 6.31 µM.
In the same order, the values of “TK (B-cell lymphoma, suspension, top dose 20 µM)” are 0.831 and 11.1 µM.
Turning to HeLa (cervix, adherent, top dose 20 µM), the AUC worked out at 0.942 and the IC50 is above 20 µM.
Turning to T47D (breast, adherent, top dose 20 µM), the AUC is 0.951 and the IC50 was above 20 µM.
As to “Ca9-22 (head and neck, adherent, top dose 20 µM)”, the AUC turned out to be 0.971 and the 50% inhibitory concentration (IC50) was above 20 µM.
Consider JHH-1 (liver, adherent, top dose 20 µM), for which the AUC was 0.891 and the half-maximal inhibitory concentration (IC50) is above 20 µM.
The like results for “NCI-H2023 (lung adenocarcinoma, adherent, top dose 20 µM)” were, in that order, 0.888 and above 20 µM.
On to “HO-1-u-1 (head and neck, adherent, top dose 20 µM)”, for which the AUC turned out to be 0.94 and the IC50 was above 20 µM.
In the case of “OAW-42 (ovary, adherent, top dose 20 µM)”, the AUC was determined as 0.93 and the half-maximal inhibitory concentration (IC50) was above 20 µM.
In the case of “G-401 (kidney, adherent, top dose 20 µM)”, the AUC stood at 0.894 and the IC50 is above 20 µM.
In the case of “NCI-H596 (lung adenocarcinoma, adherent, top dose 20 µM)”, the AUC stood at 0.957 and the IC50 was above 20 µM.
The like results for “LU-134-A (small cell lung carcinoma, suspension, top dose 20 µM)” were, in that order, 0.884 and above 20 µM.
For the cell line ES-2 (ovary, adherent, top dose 20 µM), the AUC was found to be 0.98 and the half-maximal inhibitory concentration (IC50) was above 20 µM.
The like results for “NCI-H747 (large intestine, adherent, top dose 20 µM)” were, in that order, 0.442 and 0.838 µM.
In the same order, the values of “MZ2-MEL (melanoma, adherent, top dose 20 µM)” are 0.85 and 19.3 µM.
As for “5637 (bladder, adherent, top dose 20 µM)”, the AUC worked out at 0.771 and the IC50 turned out to be 6.93 µM.
In the same order, the values of “ECC10 (stomach, suspension, top dose 20 µM)” are 0.974 and above 20 µM.
For “SNU-407 (large intestine, adherent, top dose 20 µM)”, the AUC worked out at 0.932 and the IC50 was above 20 µM.
Turning to “L-540 (Hodgkin lymphoma, suspension, top dose 20 µM)”, the AUC came out at 0.932 and the 50% inhibitory concentration (IC50) is above 20 µM.
U031 (kidney, adherent, top dose 20 µM): the AUC was found to be 0.696 and the IC50 came out at 4.53 µM.
“CAMA-1 (breast, adherent, top dose 20 µM)”: the AUC was 0.885 and the 50% inhibitory concentration (IC50) was above 20 µM.
Consider “SU-DHL-5 (B-cell lymphoma, suspension, top dose 20 µM)”, for which the AUC was 0.622 and the IC50 is 2.47 µM.
With “ARH-77 (myeloma, suspension, top dose 20 µM)”, the AUC worked out at 0.836 and the IC50 came out at 12.6 µM.
As to “NALM-6 (B-cell leukaemia, suspension, top dose 20 µM)”, the AUC came out at 0.53 and the IC50 is 1.49 µM.
In the same order, the values of “COLO-320-HSR (large intestine, suspension, top dose 20 µM)” are 0.919 and above 20 µM.
